{"source": "PubChem BioAssay AID1347165", "about": "(National Center for Advancing Translational Sciences (NCATS), 2019)", "note": "Out of some 220,000 compounds screened, about 5,700 (2.6%) were called active. The shares of active, inactive and inconclusive entries below differ from those in the screen. Calls come from the whole dose curve; as a rule, active = well fitted inhibition curve with a large enough effect; inconclusive = small, poorly fitted or top-dose-only effect; inactive = no such curve, though single readings can be large or run the other way. Potencies beside an inconclusive call are fits to weak or partial responses and may not hold up. Potency is the fitted concentration of half-maximal effect; tags give direction and shape of the fitted curve."}
{"target": "Lysine-specific demethylase 5B (Homo sapiens) (UniProt Q9UGL1)", "sequence (Q9UGL1 whole entry, looked up)": "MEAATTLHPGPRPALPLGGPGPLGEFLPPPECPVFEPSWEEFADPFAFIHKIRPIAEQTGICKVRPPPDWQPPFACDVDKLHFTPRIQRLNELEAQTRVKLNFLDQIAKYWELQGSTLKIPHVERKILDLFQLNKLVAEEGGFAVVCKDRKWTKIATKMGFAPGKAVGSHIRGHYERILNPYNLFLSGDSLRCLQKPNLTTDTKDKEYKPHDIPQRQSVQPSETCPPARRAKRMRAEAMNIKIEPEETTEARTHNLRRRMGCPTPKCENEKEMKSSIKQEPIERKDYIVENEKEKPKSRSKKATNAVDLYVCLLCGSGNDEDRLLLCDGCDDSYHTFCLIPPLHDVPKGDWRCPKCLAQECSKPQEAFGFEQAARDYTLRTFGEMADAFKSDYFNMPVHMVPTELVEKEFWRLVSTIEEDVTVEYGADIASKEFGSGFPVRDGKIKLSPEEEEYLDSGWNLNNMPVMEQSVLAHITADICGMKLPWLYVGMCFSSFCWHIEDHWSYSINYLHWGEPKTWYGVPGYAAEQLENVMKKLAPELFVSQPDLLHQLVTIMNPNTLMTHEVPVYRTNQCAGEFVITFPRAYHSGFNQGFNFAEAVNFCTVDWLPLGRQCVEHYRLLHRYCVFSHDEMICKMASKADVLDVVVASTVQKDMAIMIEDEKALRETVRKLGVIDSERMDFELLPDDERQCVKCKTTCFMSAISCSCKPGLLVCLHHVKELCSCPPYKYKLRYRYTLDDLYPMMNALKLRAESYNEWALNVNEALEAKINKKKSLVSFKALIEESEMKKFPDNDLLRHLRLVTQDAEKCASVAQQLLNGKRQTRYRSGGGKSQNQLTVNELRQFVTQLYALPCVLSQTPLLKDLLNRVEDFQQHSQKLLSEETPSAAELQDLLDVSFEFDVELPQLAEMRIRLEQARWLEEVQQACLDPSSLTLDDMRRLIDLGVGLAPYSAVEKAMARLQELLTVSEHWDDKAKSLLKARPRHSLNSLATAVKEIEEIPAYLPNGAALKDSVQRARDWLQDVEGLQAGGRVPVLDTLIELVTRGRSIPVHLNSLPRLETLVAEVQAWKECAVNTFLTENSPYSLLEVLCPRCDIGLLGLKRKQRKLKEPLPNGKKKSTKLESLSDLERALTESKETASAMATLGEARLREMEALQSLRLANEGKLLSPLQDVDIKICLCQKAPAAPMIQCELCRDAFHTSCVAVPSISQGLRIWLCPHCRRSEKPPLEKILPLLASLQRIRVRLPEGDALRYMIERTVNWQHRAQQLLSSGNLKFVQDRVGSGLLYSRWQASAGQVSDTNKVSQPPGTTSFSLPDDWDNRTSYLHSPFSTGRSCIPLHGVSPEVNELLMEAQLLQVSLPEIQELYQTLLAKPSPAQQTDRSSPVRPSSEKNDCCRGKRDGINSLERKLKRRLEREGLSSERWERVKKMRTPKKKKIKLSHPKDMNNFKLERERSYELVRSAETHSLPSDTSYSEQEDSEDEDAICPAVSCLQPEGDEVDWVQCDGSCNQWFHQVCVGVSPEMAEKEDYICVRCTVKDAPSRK", "assay": "Primary screen for KDM5B Histone Demethylases FDH-coupled qHTS; note: nearly all actives have a fitted effect of over 70% in size; for activity change, negative = inhibition: 0% is about no effect", "details": "FDH-coupled NADH fluorescence (FDH is formaldehyde dehydrogenase); activity change, negative = inhibition: at 57.7 µM (top of the series) unless noted", "summary_of_the_method": "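Measured: NADH fluorescence change, 30 min, RT. System: KDM5BΔAP 200 nM final, H3K4me3 peptide, α-KG, Fe(II), ascorbate, NAD⁺ plus FDH, pH 7.5 HEPES. Compounds: titrated, 10 min pre-incubation with enzyme.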"}
{"smiles": "CN1CC(=O)N(C2CCCNCC2)Cc2c(NCCc3ccccn3)ncnc21", "note": "(stereo not given)", "Potency": "inconclusive: 56.2 µM [inhibitor, partial curve, poor fit]"}
{"smiles": "COc1cc(C(=O)N/N=C/c2coc3ccccc3c2=O)cc(OC)c1OC", "Potency": "inconclusive: 31.6 µM [inhibitor, single point]"}
{"smiles": "COc1ccc(S(=O)(=O)NC[C@@H]2C=C(C)[C@H](CC(=O)N3CCN(c4ccccn4)CC3)C[C@H]2C(C)C)cc1", "Potency": "active: 28.2 µM"}
{"smiles": "COc1ccc(-c2cnc3n2CC(C(=O)NCC2CC2)CC3)cc1", "note": "(stereo not given)", "Potency": "inconclusive: 20 µM [inhibitor, single point]"}
{"smiles": "CCc1nc(C)sc1CN1CCCn2nc(CCC(=O)O)cc2C1", "Potency": "inconclusive: 15.8 µM [inhibitor, partial curve]"}
{"smiles": "Nc1nc(N)nc(SCc2cccc(C(F)(F)F)c2)n1", "activity change, negative = inhibition": "inactive: -0.554%"}
{"smiles": "Cn1cnc(C(=O)N2CCC(OC3CCN(S(C)(=O)=O)CC3)CC2)c1", "Potency": "inconclusive: 35.5 µM [inhibitor, partial curve, poor fit]"}
{"smiles": "Cc1noc(C)c1-c1cc(-c2ccc(CN(C)C)cc2)cn2cncc12", "Potency": "inconclusive: 39.8 µM [inhibitor, partial curve, poor fit]"}
{"smiles": "OC(COc1ccc(OCC(O)CN(Cc2ccccc2)Cc2ccccc2)cc1)CN(Cc1ccccc1)Cc1ccccc1", "note": "(stereo not given)", "Potency": "inconclusive: 1.78 µM [inhibitor, partial curve, poor fit]"}
{"smiles": "COc1ccc(N2CCN(C(c3ccccc3)c3nnc(-c4ccccc4Cl)o3)CC2)cc1", "note": "(stereo not given)", "Potency": "inconclusive: 22.4 µM [inhibitor, partial curve, poor fit]"}
{"smiles": "Cc1noc(C)c1-c1cc(-c2cccc(O)c2)cn2cncc12", "Potency": "inconclusive: 39.8 µM [inhibitor, partial curve, poor fit]"}
{"smiles": "CS(=O)(=O)N(CCCC(=O)Nc1ccc(Br)cc1F)c1ccccc1", "Potency": "inconclusive: 20 µM [inhibitor, partial curve, poor fit]"}
{"smiles": "Cc1cc(Cn2cc3c4c(cccc42)[C@H](CC(C)C)N[C@H](C(=O)NC2CCC2)C3)no1", "Potency": "inconclusive: 7.08 µM [inhibitor, full curve]"}
{"smiles": "COCCNC(=O)CCCn1c(SCC(=O)Nc2cccc(C)c2)nc2c(sc3ccccc32)c1=O", "Potency": "inconclusive: 31.6 µM [inhibitor, partial curve, poor fit]"}
{"smiles": "COc1ccccc1C(=O)N1CCc2cn(C)c3cccc(c23)C1", "activity change, negative = inhibition": "inactive: -14.7%"}
{"smiles": "CCN1c2cc(C(=O)NCc3cccc(C(F)(F)F)c3)ccc2C(=O)N2CCCCCC21", "note": "(stereo not given)", "Potency": "inconclusive: 35.5 µM [inhibitor, partial curve, poor fit]"}
{"smiles": "O=C(CCC1CCN(S(=O)(=O)c2ccccc2)CC1)N1CCc2ccccc2C1", "Potency": "inconclusive: 28.2 µM [inhibitor, single point]"}
{"smiles": "Cc1ccc(S(=O)(=O)c2nc(-c3ccccc3)oc2N2CCC(C(N)=O)CC2)cc1", "Potency": "inconclusive: 25.1 µM [inhibitor, partial curve, poor fit]"}
{"smiles": "COc1ccc(OC)c(S(=O)(=O)Oc2ccc(N)c3ccccc23)c1", "Potency": "inconclusive: 31.6 µM [inhibitor, partial curve, poor fit]"}
{"smiles": "Cn1c(C(=O)N2CCc3c(n(CCOc4ccccc4)n(-c4ccccc4)c3=O)C2)cc2ccccc21", "activity change, negative = inhibition": "inactive: -20%"}
{"smiles": "O=C1CC(c2ccsc2)c2ncn(-c3ccccc3)c2N1", "note": "(stereo not given)", "Potency": "inconclusive: 20 µM [inhibitor, partial curve, poor fit]"}
{"smiles": "COc1ccc(-c2nnc(-c3ccccc3O)o2)cc1", "Potency": "inconclusive: 22.4 µM [inhibitor, partial curve, poor fit]"}
{"smiles": "COc1ccc(C2CC(=O)Nc3c2c(=O)nc2c(C)cccn32)cc1", "note": "(stereo not given)", "Potency": "inconclusive: 15.8 µM [inhibitor, partial curve, poor fit]"}
{"smiles": "COc1cccc(C2CC(=O)Oc3c2c(=O)n(C)c2ccccc32)c1", "note": "(stereo not given)", "Potency": "inconclusive: 25.1 µM [inhibitor, partial curve, poor fit]"}
{"smiles": "CC(C)CCN1CC(Oc2ccc3c(c2)OCO3)C1", "Potency": "inconclusive: 56.2 µM [inhibitor, partial curve, poor fit]"}
{"smiles": "O=C(c1nc(-c2ccc(F)cc2)c2ccccn12)N1CCCC1", "activity change, negative = inhibition": "inactive: -3810% [at 86.2 µM]"}
{"smiles": "CC(C)NC(=O)NC(=O)CSc1nc2ccccc2c(=O)n1C1CC1", "activity change, negative = inhibition": "inactive: 9.36%"}
{"smiles": "CCC(C)Oc1cccc(C(=O)Nc2cccc3ccc(C)nc23)c1", "note": "(stereo not given)", "activity change, negative = inhibition": "inactive: -5.93%"}
{"smiles": "O=C(C1CC1)N1CCCC(c2nc(C3CCOCC3)no2)C1", "note": "(stereo not given)", "Potency": "inconclusive: 35.5 µM [inhibitor, single point]"}
{"smiles": "CN(Cc1ccncc1)Cc1cccn1C", "Potency": "inconclusive: 39.8 µM [inhibitor, partial curve, poor fit]"}
{"smiles": "Cc1cc(NC(=O)CSc2nc(=O)cc(N)n2-c2ccc(F)cc2)no1", "activity change, negative = inhibition": "inactive: 7.62%"}
{"smiles": "CN1C(=O)/C(=C/c2cccc(Cl)c2)Sc2ccc(C(=O)NCc3cccnc3)cc21", "Potency": "inconclusive: 35.5 µM [inhibitor, partial curve, poor fit]"}
{"smiles": "CC(CCCC(C)(C)O)n1cnc(-c2ccccc2)c1-c1ccc(CO)o1", "note": "(stereo not given)", "Potency": "inconclusive: 28.2 µM [inhibitor, partial curve, poor fit]"}
{"smiles": "COCC(=O)N(C)[C@H]1C[C@H]2c3[nH]c4c(-c5ccc6c(c5)OCO6)cccc4c3CCN2C(=O)[C@H]1[C@H](C)O", "Potency": "inconclusive: 3.98 µM [inhibitor, full curve, poor fit]"}
{"smiles": "COc1cc(OC)cc(C(=O)Nc2ccc3nc(N4CCC(C)CC4)cc(C)c3c2)c1", "Potency": "inconclusive: 25.1 µM [inhibitor, partial curve, poor fit]"}
{"smiles": "CCc1ccc(N2CC(c3noc(-c4cc(OC)c(OC)c(OC)c4)n3)CC2=O)cc1", "note": "(stereo not given)", "Potency": "active: 31.6 µM"}
{"smiles": "CCCCOc1cccc(C(=O)Nc2cccc3ccc(C)nc23)c1", "Potency": "inconclusive: 15.8 µM [inhibitor, partial curve, poor fit]"}
{"smiles": "NC(=O)COc1ccc(C(=O)N[C@@H]2CN(Cc3ccccn3)CCC[C@H]2O)cc1", "Potency": "active: 31.6 µM"}
{"smiles": "CCN(CC)c1ccc([N+](=O)[O-])cc1C(=O)NCc1coc(-c2cccs2)n1", "activity change, negative = inhibition": "inactive: 0.0971%"}
{"smiles": "Cc1cccc(CNC(=O)CCC2CCN(S(=O)(=O)c3cccc(F)c3)CC2)c1", "activity change, negative = inhibition": "inactive: -11.5%"}
{"smiles": "Cc1ccccc1CNC(=O)CCCn1nc(C)c2sc3ccccc3c2c1=O", "Potency": "inconclusive: 28.2 µM [inhibitor, partial curve, poor fit]"}
{"smiles": "O=C(/C=C/c1ccc(Cl)cc1)c1ccccc1O", "Potency": "inconclusive: 28.2 µM [inhibitor, single point]"}
{"smiles": "COCCNC(=O)COC(=O)c1cc(-c2ccc(F)cc2)nc2ccccc12", "Potency": "inconclusive: 31.6 µM [inhibitor, partial curve, poor fit]"}
{"smiles": "C[C@]1(CO)[C@H]2Cc3sc(NC(=O)c4ccc(F)cc4)nc3[C@@H](CC(=O)NCc3cccnc3)[C@]2(C)CC[C@H]1O", "activity change, negative = inhibition": "inactive: -2.04%"}
{"smiles": "COC(=O)c1ccccc1Nc1nc(-c2ccccc2)no1", "Potency": "inconclusive: 14.1 µM [inhibitor, partial curve]"}
{"smiles": "Cc1ccc(SCC(=O)c2ccc(S(C)(=O)=O)cc2)cc1", "Potency": "inconclusive: 35.5 µM [inhibitor, single point]"}
{"smiles": "O=C(NC1CCCN(c2cc(-c3ccc(F)cc3)[nH]n2)C1)c1ccc(Br)o1", "note": "(stereo not given)", "Potency": "inconclusive: 31.6 µM [inhibitor, partial curve, poor fit]"}
{"smiles": "Cc1cccc(C(C)C)c1NC(=O)/C=C/c1ccc(F)cc1", "activity change, negative = inhibition": "inactive: 12.2%"}
{"smiles": "Cc1ccc(-n2nc(N3CCN(S(=O)(=O)c4cccc5nsnc45)CC3)ccc2=O)cc1", "activity change, negative = inhibition": "inactive: -16.7%"}
{"smiles": "COc1cccc(NC(CNS(=O)(=O)c2ccc(C)cc2)c2ccccc2)c1", "note": "(stereo not given)", "Potency": "inconclusive: 15.8 µM [inhibitor, partial curve, poor fit]"}
{"smiles": "Cc1ccc(C)c(CN2CCC(CNC(=O)Nc3cn(CC(C)C)c(=O)c4ccccc34)CC2)c1", "Potency": "inconclusive: 31.6 µM [inhibitor, single point]"}
{"smiles": "CCN1C(=O)c2ccccc2Sc2ccc(NC(=O)c3ccc(C)c(F)c3)cc21", "Potency": "inconclusive: 35.5 µM [inhibitor, single point]"}
{"smiles": "Cc1nc(-n2ccc3nc4ccn(C5CCCCCC5)c(=O)c4cc3c2=O)n[nH]1", "Potency": "inconclusive: 1.78 µM [inhibitor, partial curve, poor fit]"}
{"smiles": "COc1ccc(OC)c(-c2cc(-c3ccccc3)nc3c(C)noc23)c1", "Potency": "active: 35.5 µM"}
{"smiles": "O=C(NCc1nnc2cc(-c3nc(C4CC4)no3)ccn12)c1nccc2ccccc12", "Potency": "active: 28.2 µM"}
{"smiles": "CSc1ccc(C(C)NC(=O)Cc2ccccc2C)cc1", "note": "(stereo not given)", "activity change, negative = inhibition": "inactive: 13.6%"}
{"smiles": "CN1C[C@@H](NC(=O)c2cccnc2)C[C@H]1c1nc(-c2cccnc2)no1", "activity change, negative = inhibition": "inactive: -11.2% [at 86.2 µM]"}
{"smiles": "CC(C)Nc1cc(N2CCN(Cc3ccccc3F)C(CCO)C2)ncn1", "note": "(stereo not given)", "activity change, negative = inhibition": "inactive: 2.91%"}
{"smiles": "CN(C)Cc1nnc(C2CC(NC(=O)c3ccn(C)c(=O)c3)C2)n1C", "note": "(stereo not given)", "Potency": "active: 31.6 µM"}
{"smiles": "CCn1c2ccccc2c2cc(NC(=O)COC(=O)c3cc(Cl)c(N)cc3OC)ccc21", "Potency": "inconclusive: 8.91 µM [inhibitor, partial curve, poor fit]"}
{"smiles": "O=C(O)c1ccc2c(c1)n(Cc1ccc(F)cc1)c(=O)c1ccnn12", "Potency": "active: 20 µM"}
{"smiles": "CC1(COc2cccnc2)COc2ccc(C(=O)Nc3ccc4[nH]ccc4c3)cc2N1", "note": "(stereo not given)", "activity change, negative = inhibition": "inactive: -11.9% [at 86.2 µM]"}
{"smiles": "CCOC(=O)Cc1csc(NC(=O)/C=C/c2ccco2)n1", "Potency": "inconclusive: 35.5 µM [inhibitor, partial curve, poor fit]"}
{"smiles": "Cc1ccc2c(c1)NC(SCC(=O)Nc1cccc(C(F)(F)F)c1)=NS2(=O)=O", "activity change, negative = inhibition": "inactive: 22.7%"}
{"smiles": "CCOC(=O)c1cc(-c2cccs2)nc2c1c(C)nn2-c1ccccc1", "activity change, negative = inhibition": "inactive: -8.86%"}
